In PubChem BioAssay AID1030 (National Center for Advancing Translational Sciences (NCATS), 2008):
The campaign covered roughly 220,000 compounds. About 16,000 (7.3%) were called active. The inconclusive results got no clear call from the source; some entries with a clear call stand among them for comparison. The call rests on the fitted dose curve; in most records, active means well fitted inhibition curve with a large enough effect (not every such curve was filed as active); inconclusive means small, poorly fitted or top-dose-only effect, or another doubt; inactive means no such curve, though single readings can be large or run the other way. Potencies beside an inconclusive call are fits to weak or partial responses and may not hold up. Peptide text beside a SMILES is read from it. * marks the point of attachment. Cbz = O=C(OCc1ccccc1)*

target: Aldehyde dehydrogenase 1A1 (Homo sapiens) (UniProt P00352); experiment: qHTS Assay for Inhibitors of Aldehyde Dehydrogenase 1 (ALDH1A1); conditions: Purified ALDH1A1, NADH fluorescence, propionaldehyde substrate; series mostly up to 75.3 µM;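 on activity, negative = inhibition: plate controls were no enzyme wells and a reference inhibitor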
Potency means the concentration at half of the fitted maximal effect; tags describe the fitted curve by direction and shape.

Sequence of UniProt P00352 (P00352 whole entry, looked up): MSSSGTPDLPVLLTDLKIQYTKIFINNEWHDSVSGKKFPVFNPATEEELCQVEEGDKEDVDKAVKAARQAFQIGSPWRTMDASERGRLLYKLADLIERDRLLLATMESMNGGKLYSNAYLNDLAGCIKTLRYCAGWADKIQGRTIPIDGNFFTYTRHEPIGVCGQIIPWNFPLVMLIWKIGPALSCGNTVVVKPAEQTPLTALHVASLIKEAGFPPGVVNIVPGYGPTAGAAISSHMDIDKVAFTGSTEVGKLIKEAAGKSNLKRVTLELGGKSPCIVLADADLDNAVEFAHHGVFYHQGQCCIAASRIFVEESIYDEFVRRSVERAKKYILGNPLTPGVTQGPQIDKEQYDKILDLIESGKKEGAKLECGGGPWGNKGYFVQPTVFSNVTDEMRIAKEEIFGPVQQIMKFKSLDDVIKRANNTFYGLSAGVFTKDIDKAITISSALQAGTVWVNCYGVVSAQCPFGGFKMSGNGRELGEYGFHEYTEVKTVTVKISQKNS

Potency, inconclusive:
CN(CC(O)Cn1c2ccccc2c2ccccc21)S(C)(=O)=O (stereo unspecified) 8.91 µM [inhibitor, single point]
COc1cccc(S(=O)(=O)Nc2ccc3sc(C)nc3c2)c1 39.8 µM [inhibitor, single point]
CCOC(=O)N1CCN(C(=O)Cn2nc(-c3ccc(Cl)cc3)ccc2=O)CC1 39.8 µM [inhibitor, single point]
c1ccc2c(c1)ncc1cccn12 35.5 µM [inhibitor, partial curve]
S=C(NCc1ccc2c(c1)OCO2)Nc1ccc2nsnc2c1 25.1 µM [inhibitor, single point]
c1ccc(Cn2cc(CN3CCCO3)c(-c3ccc4c(c3)OCO4)n2)cc1 28.2 µM [inhibitor, single point]
CC(C)SC1=NC(C)(C)C=C(/C=C/c2c(Cl)cccc2Cl)N1 39.8 µM [inhibitor, single point]
CC(C)CSC1=NSC2=NC(=O)/C(=C\c3ccccc3)C(=N)N12 6.31 µM [inhibitor, single point]
COc1cccc(-c2cc(C(=O)N3CCCCCC3)no2)c1 28.2 µM [inhibitor, partial curve]
O=C(CN1CCN(S(=O)(=O)c2ccc(Cl)s2)CC1)NCc1ccc(Cl)cc1 31.6 µM [inhibitor, single point]
CCCc1nnc(NC(=O)C(=O)NCCN(CC)CC)s1 39.8 µM [inhibitor, single point]
Cc1cnc(C(=O)Nc2nccs2)cn1 39.8 µM [inhibitor, single point]
NC(=O)CSc1nc2ccccc2c(=O)n1Cc1ccco1 25.1 µM [inhibitor, single point]
COc1ccc(-c2cc(C(=O)Nc3ccc(S(=O)(=O)Nc4ncccn4)cc3)c3ccccc3n2)cc1 31.6 µM [inhibitor, partial curve]
N#CC(c1ccccc1)c1ccc(=O)[nH]n1 (stereo unspecified) 39.8 µM [inhibitor, single point]
CCOC(=O)CSc1nc(N)c(C#N)c(-c2ccc(OC)cc2)c1C#N 25.1 µM [inhibitor, partial curve]
Cc1noc(NS(=O)(=O)c2ccc(NC(=O)CSc3nc4c(cc3C#N)CCC4)cc2)c1C 35.5 µM [inhibitor, single point]
COc1cc(C(=O)OCC2CC(c3ccccc3)=NO2)cc(OC)c1OC (stereo unspecified) 31.6 µM [inhibitor, single point]
N[C@H](Cc1ccc(O)c(O)c1)C(=O)O 35.5 µM [inhibitor, single point]
COCCn1c(=O)[nH]c2cc(C(=O)NC3CCCCCC3)ccc2c1=O 3.16 µM [inhibitor, partial curve]
Cn1nnnc1SCC(=O)Nc1nc(-c2ccccc2)c(-c2ccccc2)o1 39.8 µM [inhibitor, single point]
Cc1ccc(C(=O)N/N=C/c2cccc(OC(=O)/C=C/c3ccco3)c2)cn1 22.4 µM [inhibitor, single point]
COc1ccc2[nH]c3c(=O)n(/N=C/c4ccc(OC)c(CN5CCCC5)c4)c(C)nc3c2c1 20 µM [inhibitor, partial curve]
O=C(CSc1nnc(NC(=O)c2ccco2)s1)Nc1ccc(F)cc1 35.5 µM [inhibitor, single point]
O=c1c2c(n3cnnc3n1-c1ccccc1)-c1ccccc1CC21CCCC1 20 µM [inhibitor, single point]
Cc1scc(-c2n[nH]c(=S)n2C(C)c2ccccc2)c1C (stereo unspecified) 39.8 µM [inhibitor, single point]
Cc1oc2cc(O)ccc2c(=O)c1Oc1ccc2ccccc2c1 39.8 µM [inhibitor, single point]
O=C(NCc1ccccc1Cl)c1ccccc1Oc1ccccc1 39.8 µM [inhibitor, single point]
COc1cc(/C=N/Nc2ccc(Cl)c(C(=O)O)c2)ccc1OC(=O)c1cccs1 39.8 µM [inhibitor, single point]
COc1ccc(C)cc1NC(=O)C(Sc1nnnn1C)c1ccccc1 (stereo unspecified) 14.1 µM [inhibitor, partial curve]
Cc1ccnc(NC(=O)c2ccccc2[N+](=O)[O-])c1 35.5 µM [inhibitor, single point]
Cc1cc(C(=O)NN)c2cc(Br)ccc2n1 8.91 µM [inhibitor, partial curve, poor fit]
N#CCC(=O)N/N=C/c1cc([N+](=O)[O-])ccc1N1CCOCC1 5.62 µM [inhibitor, single point]
CCOC(=O)c1sc2nc(N3CCOCC3)c3c(c2c1N)CCCC3 31.6 µM [inhibitor, partial curve]
CN1CC=C2C(C#N)=C(N)C(C#N)(C#N)[C@H](c3cccs3)[C@H]2C1 28.2 µM [inhibitor, partial curve]
COc1ccc(CCn2c(C)cc(C(=O)CSc3nnnn3-c3ccccc3)c2C)cc1OC 0.708 µM [inhibitor, full curve]
CCc1ccc(S(=O)(=O)ON2C(=O)c3ccccc3C2=O)cc1 39.8 µM [inhibitor, single point]
Clc1ccccc1-c1nnc2sc(-c3ccccn3)nn12 35.5 µM [inhibitor, single point]
Cc1cc(=O)oc(C)c1C(=O)Nc1ccc2nsnc2c1 31.6 µM [inhibitor, single point]

Potency, active:
O=[N+]([O-])c1cccc(/C([O-])=C(/C(=S)Nc2ccccc2F)[n+]2ccccc2)c1 22.4 µM
Cc1cccc(C(=O)c2cnc3ccccc3c2-c2ccccc2)c1 12.6 µM
CCOC(=O)C1CCN(C(c2cc3ccc(C)c(C)c3[nH]c2=O)c2nnnn2C2CCCCC2)CC1 (stereo unspecified) 20 µM
CCCCNC(=S)N1CCN(C(c2ccccc2)c2ccccc2)CC1 28.2 µM
CCOC(=O)Cn1nnnc1CN(Cc1cccs1)Cc1cc2cc(C)ccc2[nH]c1=O 15.8 µM
Cc1ccc2c(CN3CCN(Cc4ccc5c(c4)OCO5)CC3)cc(=O)oc2c1C 25.1 µM
CCOC(=O)c1sc(NC(=O)C2C3C=CC(C3)C2C(=O)O)nc1C (stereo unspecified) 0.501 µM
CC1CC2(CCCCC2)N2C(=O)C(=O)c3cccc1c32 (stereo unspecified) 0.0447 µM
Cc1ccc(-n2c(N)c(C(=O)N3CCCCC3)sc2=S)cc1 10 µM
Nc1ccc(N(CCO)CCO)cc1 15.8 µM
O=C(CN1CCN(c2ccccc2O)CC1)Nc1cc([N+](=O)[O-])ccc1Cl 22.4 µM
Cc1ccc(N2C(=O)CC(NCc3ccc4c(c3)OCO4)C2=O)cc1Cl (stereo unspecified) 22.4 µM
Cc1nc([N+](=O)[O-])c(Sc2nc3ccc([N+](=O)[O-])cc3[nH]2)n1Cc1ccccc1 7.51 µM
COc1ccc(C)cc1-n1nnnc1SCC(=O)Nc1cc(C)on1 2 µM
Cc1cc([N+](=O)[O-])c2c(c1C)C1C=CCC1C(c1ccccn1)N2 (stereo unspecified) 8.91 µM
O=C(NCc1cccs1)C(=O)NCC1OCCCN1S(=O)(=O)c1cccs1 (stereo unspecified) 14.1 µM
CCn1cc(C(=O)N2CCN(Cc3ccc4c(c3)OCO4)CC2)c2cc(OC)c(OC)cc2c1=O 2.24 µM

Potency, inactive:
Cc1ccccc1SCCNC(=O)c1ccccc1Br
CC/C(=N/NC(=O)c1ccc(Br)o1)c1ccc(Cl)cc1
C=CCn1c(N)c(C(=O)Nc2ccc(C)cc2)sc1=S
CC(C)[C@H](NC(=O)OCc1ccccc1)C(=O)N[C@H](C=O)Cc1ccccc1 (Cbz-Val-Phe-aldehyde)
CCOc1cccc(C(=O)N(Cc2ccco2)C2CCS(=O)(=O)C2)c1 (stereo unspecified)
COc1ccc(CN(C)CC(=O)Nc2ccc(N3CCOCC3)cc2)cc1OC
COCC(=O)N1CCC2(CCCN(Cc3cc(C(F)(F)F)cc(C(F)(F)F)c3)C2)CC1
Cc1ccccc1SCC(=O)Nc1ccc(N2CCOCC2)cc1
NC(=O)CC1NC(=O)c2ccccc21 (stereo unspecified)
OC[C@H]1NC[C@@H](O)[C@@H]1O
CC(=O)Nc1scc(-c2ccccc2)[n+]1-c1ccc(C)cc1
COCCN(C(=S)Nc1ccccc1C)C(C)c1cccs1 (stereo unspecified)
O=C(c1cnccn1)N1CCC2(CCN(Cc3nccs3)CC2)CC1
O=S1(=O)CCC(=Nc2ccc(Cl)cc2)c2ccsc21
CC(=O)NCCc1nc2ccccc2n1CCc1ccccc1
CC(CN1CCCCC1)NC(=O)c1cc(-c2ccccn2)nc2ccc(Cl)cc12 (stereo unspecified)
CC1=C(C(=O)Nc2ccccc2C)C(c2cccnc2)n2nc(CCCO)nc2N1 (stereo unspecified)
C=C(C)C(=O)Nc1ccc(OC(F)(F)C(F)F)c(NC(=O)C(=C)C)c1
COc1ccc(C(=O)CSc2nnc(COc3ccc(C#N)cc3)n2-c2ccccc2)cc1

activity, negative = inhibition, inactive:
CC12C=C(/C=C/c3ccc(F)cc3)C(C)(C1)C(c1ccc(F)cc1)CC2=O (stereo unspecified) -0.609% [at 13.5 µM]
